Results on 86 sequences are retold here after the supplement of paper PMC3334620.

The full ranking holds about 33,000 sequences; the median of “E-score (-0.5 to 0.5)” is about -0.041, and the highest 2% start at about 0.37. The list shows a part of the results.

This test concerns the target T1, Ecm22 (UniProt Q05958).
T1 sequence: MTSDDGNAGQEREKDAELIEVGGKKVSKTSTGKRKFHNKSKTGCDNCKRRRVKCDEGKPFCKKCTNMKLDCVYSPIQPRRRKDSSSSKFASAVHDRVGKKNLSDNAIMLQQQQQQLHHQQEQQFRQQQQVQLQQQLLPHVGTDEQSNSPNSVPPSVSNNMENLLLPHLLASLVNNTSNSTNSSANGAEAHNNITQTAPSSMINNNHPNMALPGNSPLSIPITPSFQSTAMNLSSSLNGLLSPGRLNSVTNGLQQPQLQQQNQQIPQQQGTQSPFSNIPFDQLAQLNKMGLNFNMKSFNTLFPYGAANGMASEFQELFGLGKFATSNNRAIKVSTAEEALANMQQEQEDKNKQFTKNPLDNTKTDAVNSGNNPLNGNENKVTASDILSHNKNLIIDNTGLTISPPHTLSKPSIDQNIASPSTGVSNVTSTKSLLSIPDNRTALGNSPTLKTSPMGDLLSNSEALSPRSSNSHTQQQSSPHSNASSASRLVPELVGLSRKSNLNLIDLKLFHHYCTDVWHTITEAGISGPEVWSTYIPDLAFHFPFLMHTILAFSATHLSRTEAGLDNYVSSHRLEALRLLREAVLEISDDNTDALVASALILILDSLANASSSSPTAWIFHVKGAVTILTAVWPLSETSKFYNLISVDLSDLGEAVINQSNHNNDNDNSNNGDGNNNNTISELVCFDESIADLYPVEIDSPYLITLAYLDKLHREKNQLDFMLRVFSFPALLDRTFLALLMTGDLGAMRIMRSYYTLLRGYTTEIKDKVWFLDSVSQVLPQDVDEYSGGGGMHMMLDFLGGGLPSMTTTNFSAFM
The test can be described thus: PBM E-score (8-mer binding enrichment) (E-score (-0.5 to 0.5)); higher = stronger / more preferred TF binding; most listed sequences are background and not binding sites. To be noted: protein concentration: 200 nM; construct: GST-full length. In a few lines:
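Detection of bound protein used fluorescent anti-GST, with scans normalised by masliner. The proteins were GST-tagged yeast transcription factors applied at about 100-200 nM to universal all-10-mer Agilent arrays made double-stranded by primer extension. Each ungapped eight-base word, pooled with its reverse complement, was scored with an E-score from the Universal PBM Analysis Suite.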
As to ACTACAAC, the “PBM E-score” value turned out to be 0.0838. The figure for TATGGGAA is -0.0838. For AAAAACGA, the “PBM E-score” value was 0.323.

Consider CACGCAGA, for which the “PBM E-score” value amounted to 0.0454. The figure for TCTCCGCA is -0.151; for CCTCCCGC it is -0.147. The figure for ACAGGACC is -0.288. Turning to AGCACGAG, the “PBM E-score” value is 0.221. As for GGTATCAA, the “PBM E-score” value is -0.265. As for CGAGAACG, the figure is 0.297; as for ATGTCGCG, 0.158. The figure for AGGGATCC is -0.0933; for ACTTGTTC it is 0.0403. For the sequence GCGAGACC, the “PBM E-score” value is 0.139. Turning to GCTGACCA, the “PBM E-score” value was -0.0795. As for GAAGAACC, the figure is 0.0504; as for AATGAATT, -0.00037; as for CAACTAGA, -0.169. As for AAGATATC, the figure is -0.123; as for GAGTAGGA, -0.118; as for CTATTTGC, -0.161.

With CCTCGTTA, the “PBM E-score” value was 0.402. On to GTCAAATA, for which the “PBM E-score” value turned out to be 0.063.

In the case of GCGGCTTA, the “PBM E-score” value was -0.0737. As for CGCACTTC, the figure is 0.0345. The figure for AAATTACA is 0.142; for CTTATATA it is 0.193; for AGGGGAAA it is -0.223. For AACTGCGC, the “PBM E-score” value is -0.0255. For CCGTGACG, the “PBM E-score” value was -0.222.

As to AATTGGCG, the “PBM E-score” value is 0.049. Regarding GATGATGA, the “PBM E-score” value was found to be 0.0734. The figure for GTAGCCAC is -0.228; for CAACGTCC it is -0.146. In the case of AAGATTTG, the “PBM E-score” value came out at 0.0188. As for AAGATTGT, the figure is 0.00384; as for ATTACTCC, -0.138; as for GATTAGAA, 0.0243.

In the case of CTATGTTA, the “PBM E-score” value is -0.0263. As to CTTCAGAC, the “PBM E-score” value was -0.153. The figure for CCGTTTAC is 0.416. As for CATGTACA, the figure is -0.0676.

Turning to CACGGCTC, the “PBM E-score” value was -0.135. The figure for GCGTACAA is 0.243; for ACTATGCG it is 0.294; for ATGACCTC it is -0.132. For AATGGTCT, the “PBM E-score” value is -0.274. AGCATGAA: the “PBM E-score” value was -0.072. The figure for CTCGCATC is 0.304; for ACTCAGCG it is -0.226. With GGGCAAGA, the “PBM E-score” value was 0.0255. As to ACATAACC, the “PBM E-score” value was -0.0386. As to ATTTGGTC, the “PBM E-score” value came out at 0.023.

ACGCATCC: the “PBM E-score” value stood at 0.206. As for CCTTTTGA, the “PBM E-score” value is 0.0464. The figure for CAGCGTGG is -0.04. The figure for GCTGTTAC is -0.0482. The figure for AAGTGTGC is -0.111; for CACTACCA it is 0.0485. Consider AACCAACT, for which the “PBM E-score” value is -0.0109. As for GTAGAGAC, the figure is -0.185; as for CATGGAGG, -0.215.

For the sequence GCCTGGTA, the “PBM E-score” value was -0.0018. For ACCACACG, the “PBM E-score” value stood at 0.135. As for CTAGCGCC, the “PBM E-score” value is -0.233. The figure for GGTCTAAC is -0.0964; for AGTTTCTA it is -0.0187. The figure for GCCGAGAA is 0.0598. Consider CTTTCAGC, for which the “PBM E-score” value is -0.112.

For the sequence AGTGCGCC, the “PBM E-score” value is -0.124. As for TCGATTAA, the figure is 0.19; as for AACCCCTT, -0.053. The figure for CGGCTATA is 0.073. The figure for CTCCAAAA is -0.226; for CTTACCTA it is -0.117; for GACTCGAC it is 0.0219.

Turning to CAAGCACC, the “PBM E-score” value is -0.192. As for ATAGAACG, the figure is 0.303.

As to TACGCAAA, the “PBM E-score” value is 0.163. In the case of ATCATCGA, the “PBM E-score” value is -0.0348.

On to AGTCGAGA, for which the “PBM E-score” value was 0.0366. The figure for TAGTGGCA is -0.179. Consider AAAGGCAG, for which the “PBM E-score” value was -0.157. As for CAACGATC, the figure is 0.175; as for TCAACGGA, -0.0109; as for AGTAGTAA, 0.0772.
